# In the supplement of paper PMC8728848:
# The other results are listed elsewhere or left out.
# B1: DC-Sign (Homo sapiens), Q9NNX6 (protein)
# chain: MSDSKEPRLQQLGLLEEEQLRGLGFRQTRGYKSLAGCLGHGPLVLQLLSFTLLAGLLVQVSKVPSSISQEQSRQDAIYQNLTQLKAAVGELSEKSKLQEIYQELTQLKAAVGELPEKSKLQEIYQELTRLKAAVGELPEKSKLQEIYQELTWLKAAVGELPEKSKMQEIYQELTRLKAAVGELPEKSKQQEIYQELTRLKAAVGELPEKSKQQEIYQELTRLKAAVGELPEKSKQQEIYQELTQLKAAVERLCHPCPWEWTFFQGNCYFMSNSQRNWHDSITACKEVGAQLVVIKSAEEQNFLQLQSSRSNRFTWMGLSDLNQEGTWQWVDGSPLLPSFKQYWNRGEPNNVGEEDCAEFSGNGWNDDKCNLAKFWICKKSAASCSRDEEQFLSPAPATPNPPPA
# Columns and labels:
# Assay in all cases: glycan array binding signal (z-score within array); higher = stronger binding
# Settings in all cases: glycan notation: IUPAC condensed, linker removed
# [1] = target: Gal(b1-4)GalNAc(b1-3)[Fuc(a1-2)]Gal(b1-4)GlcNAc
# Summary of the method: (§1)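 Columns mapping to the same glycan were averaged after glycan names were converted to IUPAC-condensed notation. The data come from 3228 arrays in the Consortium for Functional Glycomics database, limited to those with an available protein sequence. Binding is reported as a within-array Z-score averaged across arrays of one protein sequence and across linkers.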
# Gal(b1-4)Glc = target: Gal(b1-4)Glc
# Summary of the method: as §1
# Gal(b1-4)Glc6S = target: Gal(b1-4)Glc6S
# Summary of the method: as §1
# Gal(b1-4)GlcNAc = target: Gal(b1-4)GlcNAc
# Summary of the method: as §1
# [2] = target: Gal(b1-4)GlcNAc(a1-6)Gal(b1-4)GlcNAc
# Summary of the method: as §1
# Gal(b1-4)GlcNAc(b1-2)Man = target: Gal(b1-4)GlcNAc(b1-2)Man
# Summary of the method: as §1
# [3] = target: Gal(b1-4)GlcNAc(b1-2)Man(a1-3)Man(b1-4)GlcNAc(b1-4)GlcNAc
# Summary of the method: as §1
# [4] = target: Gal(b1-4)GlcNAc(b1-2)Man(a1-3)[Gal(b1-4)GlcNAc(b1-2)Man(a1-6)]Man(b1-4)GlcNAc(b1-4)GlcNAc
# Summary of the method: as §1
# [5] = target: Gal(b1-4)GlcNAc(b1-2)Man(a1-3)[Gal(b1-4)GlcNAc(b1-2)Man(a1-6)]Man(b1-4)GlcNAc(b1-4)[Fuc(a1-6)]GlcNAc
# Summary of the method: as §1
# [6] = target: Gal(b1-4)GlcNAc(b1-2)Man(a1-3)[Gal(b1-4)GlcNAc(b1-2)Man(a1-6)][Gal(b1-4)GlcNAc(b1-4)]Man(b1-4)GlcNAc(b1-4)[Fuc(a1-6)]GlcNAc
# Summary of the method: as §1
# [7] = target: Gal(b1-4)GlcNAc(b1-2)Man(a1-3)[Gal(b1-4)GlcNAc(b1-2)Man(a1-6)][GlcNAc(b1-4)]Man(b1-4)GlcNAc(b1-4)[Fuc(a1-6)]GlcNAc
# Summary of the method: as §1
# [8] = target: Gal(b1-4)GlcNAc(b1-2)Man(a1-3)[GlcNAc(b1-2)Man(a1-6)]Man(b1-4)GlcNAc(b1-4)GlcNAc
# Summary of the method: as §1
# [9] = target: Gal(b1-4)GlcNAc(b1-2)Man(a1-3)[GlcNAc(b1-4)][Gal(b1-4)GlcNAc(b1-2)Man(a1-6)]Man(b1-4)GlcNAc(b1-4)GlcNAc
# Summary of the method: as §1
# [10] = target: Gal(b1-4)GlcNAc(b1-2)Man(a1-3)[Man(a1-6)]Man(b1-4)GlcNAc(b1-4)GlcNAc
# Summary of the method: as §1
# [11] = target: Gal(b1-4)GlcNAc(b1-2)Man(a1-6)Man(b1-4)GlcNAc(b1-4)GlcNAc
# Summary of the method: as §1
# [12] = target: Gal(b1-4)GlcNAc(b1-2)Man(a1-6)[GlcNAc(b1-2)Man(a1-3)]Man(b1-4)GlcNAc(b1-4)GlcNAc
# Summary of the method: as §1
# [13] = target: Gal(b1-4)GlcNAc(b1-2)Man(a1-6)[Man(a1-3)]Man(b1-4)GlcNAc(b1-4)GlcNAc
# Summary of the method: as §1
# [14] = target: Gal(b1-4)GlcNAc(b1-2)[Gal(b1-4)GlcNAc(b1-4)]Man(a1-3)[Gal(b1-4)GlcNAc(b1-2)Man(a1-6)]Man(b1-4)GlcNAc(b1-4)GlcNAc
# Summary of the method: as §1
# [15] = target: Gal(b1-4)GlcNAc(b1-2)[Gal(b1-4)GlcNAc(b1-4)]Man(a1-3)[Gal(b1-4)GlcNAc(b1-2)[Gal(b1-4)GlcNAc(b1-6)]Man(a1-6)]Man(b1-4)GlcNAc(b1-4)GlcNAc
# Summary of the method: as §1
# [16] = target: Gal(b1-4)GlcNAc(b1-2)[Gal(b1-4)GlcNAc(b1-4)]Man(a1-3)[GlcNAc(b1-4)][Gal(b1-4)GlcNAc(b1-2)Man(a1-6)]Man(b1-4)GlcNAc(b1-4)GlcNAc
# Summary of the method: as §1
# [17] = target: Gal(b1-4)GlcNAc(b1-2)[Gal(b1-4)GlcNAc(b1-4)]Man(a1-3)[GlcNAc(b1-4)][Gal(b1-4)GlcNAc(b1-2)[Gal(b1-4)GlcNAc(b1-6)]Man(a1-6)]Man(b1-4)GlcNAc(b1-4)GlcNAc
# Summary of the method: as §1
# [18] = target: Gal(b1-4)GlcNAc(b1-2)[Gal(b1-4)GlcNAc(b1-6)]Man(a1-6)[Gal(b1-4)GlcNAc(b1-2)Man(a1-3)]Man(b1-4)GlcNAc(b1-4)GlcNAc
# Summary of the method: as §1
# [19] = target: Gal(b1-4)GlcNAc(b1-2)[Gal(b1-4)GlcNAc(b1-6)]Man(a1-6)[Gal(b1-4)GlcNAc(b1-2)Man(a1-3)]Man(b1-4)GlcNAc(b1-4)[Fuc(a1-6)]GlcNAc
# Summary of the method: as §1
# [20] = target: Gal(b1-4)GlcNAc(b1-2)[Gal(b1-4)GlcNAc(b1-6)]Man(a1-6)[GlcNAc(b1-4)][Gal(b1-4)GlcNAc(b1-2)Man(a1-3)]Man(b1-4)GlcNAc(b1-4)GlcNAc
# Summary of the method: as §1
# [21] = target: Gal(b1-4)GlcNAc(b1-2)[Gal(b1-4)GlcNAc(b1-6)]Man(a1-6)[GlcNAc(b1-4)][Gal(b1-4)GlcNAc(b1-2)[Gal(b1-4)GlcNAc(b1-4)]Man(a1-3)]Man(b1-4)GlcNAc(b1-4)[Fuc(a1-6)]GlcNAc
# Summary of the method: as §1
# [22] = target: Gal(b1-4)GlcNAc(b1-3)Gal(b1-3)GalNAc
# Summary of the method: as §1
# [23] = target: Gal(b1-4)GlcNAc(b1-3)Gal(b1-3)GlcNAc
# Summary of the method: as §1
# [24] = target: Gal(b1-4)GlcNAc(b1-3)Gal(b1-4)Glc
# Summary of the method: as §1
# [25] = target: Gal(b1-4)GlcNAc(b1-3)Gal(b1-4)GlcNAc
# Summary of the method: as §1
# [26] = target: Gal(b1-4)GlcNAc(b1-3)Gal(b1-4)GlcNAc(b1-2)Man(a1-3)[Gal(b1-4)GlcNAc(b1-3)Gal(b1-4)GlcNAc(b1-2)Man(a1-6)]Man(b1-4)GlcNAc(b1-4)GlcNAc
# Summary of the method: as §1
# [27] = target: Gal(b1-4)GlcNAc(b1-3)Gal(b1-4)GlcNAc(b1-2)Man(a1-3)[Gal(b1-4)GlcNAc(b1-3)Gal(b1-4)GlcNAc(b1-2)Man(a1-6)]Man(b1-4)GlcNAc(b1-4)[Fuc(a1-6)]GlcNAc
# Summary of the method: as §1
# [28] = target: Gal(b1-4)GlcNAc(b1-3)Gal(b1-4)GlcNAc(b1-2)[Gal(b1-4)GlcNAc(b1-3)Gal(b1-4)GlcNAc(b1-6)]Man(a1-6)[Gal(b1-4)GlcNAc(b1-3)Gal(b1-4)GlcNAc(b1-2)Man(a1-3)]Man(b1-4)GlcNAc(b1-4)GlcNAc
# Summary of the method: as §1
# [29] = target: Gal(b1-4)GlcNAc(b1-3)Gal(b1-4)GlcNAc(b1-2)[Gal(b1-4)GlcNAc(b1-3)Gal(b1-4)GlcNAc(b1-6)]Man(a1-6)[Gal(b1-4)GlcNAc(b1-3)Gal(b1-4)GlcNAc(b1-2)Man(a1-3)]Man(b1-4)GlcNAc(b1-4)[Fuc(a1-6)]GlcNAc
# Summary of the method: as §1
# [30] = target: Gal(b1-4)GlcNAc(b1-3)Gal(b1-4)GlcNAc(b1-3)Gal(b1-4)GlcNAc
# Summary of the method: as §1
# [31] = target: Gal(b1-4)GlcNAc(b1-3)Gal(b1-4)GlcNAc(b1-3)Gal(b1-4)GlcNAc(b1-2)Man(a1-3)[Gal(b1-4)GlcNAc(b1-3)Gal(b1-4)GlcNAc(b1-3)Gal(b1-4)GlcNAc(b1-2)Man(a1-6)]Man(b1-4)GlcNAc(b1-4)GlcNAc
# Summary of the method: as §1
# [32] = target: Gal(b1-4)GlcNAc(b1-3)Gal(b1-4)GlcNAc(b1-3)Gal(b1-4)GlcNAc(b1-2)Man(a1-3)[Gal(b1-4)GlcNAc(b1-3)Gal(b1-4)GlcNAc(b1-3)Gal(b1-4)GlcNAc(b1-2)Man(a1-6)]Man(b1-4)GlcNAc(b1-4)[Fuc(a1-6)]GlcNAc
# Summary of the method: as §1
# [33] = target: Gal(b1-4)GlcNAc(b1-3)Gal(b1-4)GlcNAc(b1-3)Gal(b1-4)GlcNAc(b1-2)[Gal(b1-4)GlcNAc(b1-3)Gal(b1-4)GlcNAc(b1-3)Gal(b1-4)GlcNAc(b1-6)]Man(a1-6)[Gal(b1-4)GlcNAc(b1-3)Gal(b1-4)GlcNAc(b1-3)Gal(b1-4)GlcNAc(b1-2)Man(a1-3)]Man(b1-4)GlcNAc(b1-4)[Fuc(a1-6)]GlcNAc
# Summary of the method: as §1
binder,measurement,setting,value
B1,glycan array binding signal (z-score),[1],-0.159
same,glycan array binding signal (z-score),Gal(b1-4)Glc,-0.186
same,glycan array binding signal (z-score),Gal(b1-4)Glc6S,-0.188
same,glycan array binding signal (z-score),Gal(b1-4)GlcNAc,-0.185
same,glycan array binding signal (z-score),[2],-0.166
same,glycan array binding signal (z-score),Gal(b1-4)GlcNAc(b1-2)Man,-0.122
same,glycan array binding signal (z-score),[3],-0.119
same,glycan array binding signal (z-score),[4],-0.096
same,glycan array binding signal (z-score),[5],-0.195
same,glycan array binding signal (z-score),[6],-0.122
same,glycan array binding signal (z-score),[7],-0.086
same,glycan array binding signal (z-score),[8],-0.13
same,glycan array binding signal (z-score),[9],-0.162
same,glycan array binding signal (z-score),[10],-0.156
same,glycan array binding signal (z-score),[11],-0.156
same,glycan array binding signal (z-score),[12],-0.159
same,glycan array binding signal (z-score),[13],-0.115
same,glycan array binding signal (z-score),[14],-0.173
same,glycan array binding signal (z-score),[15],-0.2
same,glycan array binding signal (z-score),[16],-0.201
same,glycan array binding signal (z-score),[17],-0.211
same,glycan array binding signal (z-score),[18],-0.2
same,glycan array binding signal (z-score),[19],-0.163
same,glycan array binding signal (z-score),[20],-0.187
same,glycan array binding signal (z-score),[21],-0.207
same,glycan array binding signal (z-score),[22],-0.181
same,glycan array binding signal (z-score),[23],-0.195
same,glycan array binding signal (z-score),[24],-0.169
same,glycan array binding signal (z-score),[25],-0.184
same,glycan array binding signal (z-score),[26],-0.106
same,glycan array binding signal (z-score),[27],-0.133
same,glycan array binding signal (z-score),[28],0.026
same,glycan array binding signal (z-score),[29],-0.107
same,glycan array binding signal (z-score),[30],-0.187
same,glycan array binding signal (z-score),[31],-0.091
same,glycan array binding signal (z-score),[32],-0.137
same,glycan array binding signal (z-score),[33],-0.094
